Molecules are shown by their SMILES.

One data set has as its system Leishmania major. Briefly: Antileishmanial activity against amastigote stage of Leishmania major (MHOM/IL/81/BNI) infected in BALB/c mouse peritoneal macrophages assessed as reduction in parasitic proliferation measured after 4 days by MayGrunwald-Giemsa stain based microscopic method. The settings on record: Peritoneal macrophage, 96 h. Type of data set: functional, organism-based. In short, it runs like this: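 BALB/c peritoneal macrophages on glass slides, 1.5×10⁵ cells/mL in RPMI 1640 with 15% FBS, 24 h attachment. Infected with stationary-phase promastigotes (1.5×10⁶/mL) for 24 h at 37 °C, 5% CO₂. Washed, then exposed 4 days to 100, 10, 1, 0.1 μM (DMSO ≤1% final). Methanol-fixed, May-Grunwald-Giemsa stained, amastigotes counted in 100 macrophages per duplicate well. IC50 from amastigotes/macrophage. Run twice.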

The nature of data set [1]: Cytotoxicity against mouse RAW264.7 cells assessed as reduction in cell growth measured after 48 hrs by SYBR Green 1 dye based fluorescence assay. In short, it runs like this: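 RAW 264.7 cells seeded at 100,000 cells/well in DMEM with 10% FBS, 24 h at 37 °C, 5% CO₂. Two-fold serial dilutions, final 49 nM–100 μM, for 48 h. Growth read by SYBR Green I. CC50 by nonlinear regression. Miltefosine reference; untreated cells as growth control.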

Data set [2] is described as follows: Cytotoxicity against human MRC5 cells assessed as reduction in cell viability measured after 96 hrs by resazurin assay. It counts as cell-based. In short, it runs like this: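 Human MRC-5 fibroblasts grown in RPMI 1640 with 10% FBS. Exposed to 100, 10 and 1 μM in triplicate for 96 h. Then 10 μL of 700 μM resazurin added for 4 h and fluorescence read. Value is the mean of triplicates.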

A short description of data set [3]: Selectivity index, ratio of CC50 for mouse RAW264.7 cells to IC50 for amastigote stage of Leishmania major (MHOM/IL/81/BNI) infected in BALB/c mouse peritoneal macrophages. It counts as toxicity. The settings on record: read-out: Ratio CC50/IC50. A digest of the protocol: (§1)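 Selectivity index is CC50 on RAW 264.7 or MRC-5 cells divided by IC50 on intracellular amastigotes.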

A short description of data set [4]: Selectivity index, ratio of CC50 for human MRC5 cells to IC50 for amastigote stage of Leishmania major (MHOM/IL/81/BNI) infected in BALB/c mouse peritoneal macrophages. To be noted: read-out: Ratio CC50/IC50. It counts as toxicity. A digest of the protocol:
as §1

Data set [5] is described as follows: Selectivity index, ratio of CC50 for human MRC5 cells to IC50 for amastigote stage of Leishmania amazonensis (MHOM/BR/73/M2269) infected in mouse RAW264.7 cells. Type of data set: toxicity, cell-based. The settings on record: read-out: Ratio CC50/IC50. In short, it runs like this:
as §1

Data set [6] can be described thus: Selectivity index, ratio of CC50 for mouse RAW264.7 cells to IC50 for amastigote stage of Leishmania braziliensis (MHOM/BR/75/M2903b) infected in mouse RAW264.7 cells. The settings on record: read-out: Ratio CC50/IC50. Type of data set: toxicity, cell-based. In short, it runs like this:
as §1

A short description of data set [7]: Selectivity index, ratio of CC50 for mouse RAW264.7 cells to IC50 for amastigote stage of Leishmania infantum (MHOM/FR/2008/LEM5700) infected in mouse RAW264.7 cells. The settings on record: read-out: Ratio CC50/IC50. Type of data set: toxicity, cell-based. A digest of the protocol:
as §1

A short description of data set [8]: Selectivity index, ratio of CC50 for mouse RAW264.7 cells to IC50 for amastigote stage of Leishmania donovani (MHOM/ET/67/HU3) infected in mouse RAW264.7 cells. The settings on record: read-out: Ratio CC50/IC50. Type of data set: toxicity, cell-based. A digest of the protocol:
as §1

The nature of data set [9]: Toxicity against Galleria mellonella larva assessed as reduction of viability at 50 mg/kg measured for 7 days. Type of data set: organism-based. The settings on record: in vivo, 168 h, time 7 day. In short, it runs like this:
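G. mellonella larvae (6th stage, 260–320 mg), groups of ten. Injected in the 4th left pro-leg with 10 μL at 10–50 mg/kg; controls got PBS/DMSO (DMSO <40%). Kept in the dark at 37 °C. Survival and cuticular darkening scored daily for 7 days; death taken as no movement on stimulus. Kaplan-Meier with log-rank test; two independent experiments.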

Data set [10] is described as follows: Inhibition of recombinant Leishmania major CK1.2 expressed in bacterial expression system using RRKHAAIGSpAYSITA as substrate in presence of ATP measured after 30 mins by ADP-Glo assay. In general terms: In ADP-Glo the light output rises with the ADP produced.
Data set [11] concerns the target Casein kinase I isoform epsilon (Homo sapiens, UniProt P49674). In words: Inhibition of recombinant human CK1 epsilon expressed in baculovirus infected Sf9 cells using RRKHAAIGSpAYSITA as substrate. Type of data set: ADME.
Sequence of UniProt P49674 (P49674 whole entry): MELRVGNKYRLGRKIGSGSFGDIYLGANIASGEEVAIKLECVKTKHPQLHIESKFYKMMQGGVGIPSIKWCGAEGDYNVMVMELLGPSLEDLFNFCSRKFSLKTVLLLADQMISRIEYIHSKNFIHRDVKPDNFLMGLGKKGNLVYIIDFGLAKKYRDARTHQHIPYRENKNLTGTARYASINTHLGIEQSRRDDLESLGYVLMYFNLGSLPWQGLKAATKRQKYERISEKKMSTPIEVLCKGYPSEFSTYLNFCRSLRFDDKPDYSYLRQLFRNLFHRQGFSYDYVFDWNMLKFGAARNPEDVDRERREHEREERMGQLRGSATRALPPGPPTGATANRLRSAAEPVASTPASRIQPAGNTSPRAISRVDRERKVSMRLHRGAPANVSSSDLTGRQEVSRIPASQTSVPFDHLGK
For data set [12], the target named is Glycogen synthase kinase-3 (Sus scrofa, UniProt B2LUN4+I6LNT8). In words: Inhibition of pig brain GSK alpha/beta using YRRAAVPPSPSLSRHSSPHQSpEDEEE as substrate in presence of ATP measured after 30 mins by ADP-Glo assay. It counts as ADME, tissue-based, Sus scrofa domesticus.
Data set [13] deals with Receptor-interacting serine/threonine-protein kinase 3 (Homo sapiens, UniProt Q9Y572). In words: Inhibition of recombinant human RIPK3 expressed in baculovirus infected Sf9 cells using MBP as substrate in presence of ATP measured after 30 mins by ADP-Glo assay. The settings on record: sf9, 0.5 h. It counts as ADME.
Sequence of UniProt Q9Y572 (Q9Y572 whole entry): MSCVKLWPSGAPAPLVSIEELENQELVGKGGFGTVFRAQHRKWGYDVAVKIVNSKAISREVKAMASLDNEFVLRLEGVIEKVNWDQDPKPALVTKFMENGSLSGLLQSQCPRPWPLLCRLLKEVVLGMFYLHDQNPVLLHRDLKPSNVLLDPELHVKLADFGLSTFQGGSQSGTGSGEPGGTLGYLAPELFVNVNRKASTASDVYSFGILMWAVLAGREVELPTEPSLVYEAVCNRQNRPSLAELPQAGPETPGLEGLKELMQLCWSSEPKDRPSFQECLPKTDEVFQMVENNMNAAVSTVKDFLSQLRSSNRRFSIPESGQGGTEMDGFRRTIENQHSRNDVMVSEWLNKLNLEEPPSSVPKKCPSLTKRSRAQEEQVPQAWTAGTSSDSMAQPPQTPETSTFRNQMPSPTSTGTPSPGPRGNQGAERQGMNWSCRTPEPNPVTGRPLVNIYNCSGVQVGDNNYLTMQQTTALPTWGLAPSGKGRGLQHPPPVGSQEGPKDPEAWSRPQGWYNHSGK
Data set [14] relates to Leishmania donovani. In words: Potency index, ratio of Miltefosine IC50 to test compound IC50 for antileishmanial activity against amastigote stage of Leishmania donovani (MHOM/ET/67/HU3) infected in mouse RAW264.7 cells assessed as reduction in parasitic proliferation measured by SYBR Green 1 dye based fluorescence assay. Type of data set: functional.
In data set [15] the test system is Leishmania donovani. In words: Antileishmanial activity against intramacrophage form of Leishmania donovani. Type of data set: functional, organism-based.

What is called IC50 is the concentration that gives 50% inhibition. A word on the CC50: it is the concentration at which the toxic effect on the cells reaches its halfway point. Consider `CN(C)c1nccn2c(-c3cnn(C)c3)c(-c3ccc(F)cc3)nc12`, for which the IC50 with Leishmania major was 8.99 µM; in data set [10], 12.4 µM; in data set [11], above 100 µM; in [12], above 10 µM. In [1], the CC50 at 48 h came to 16 µM. In data set [2], the CC50 at 96 h is above 100 µM. Also, the selectivity ratio turned out to be 1.8 in [3]; 11.1 in data set [4]; 4 in [5]; 0.6 in [6]; 6.1 in data set [7]; 12.6 in [8]. For the same molecule, the Activity result in data set [9] is “Non-Toxic”. In addition, the “inhibition (INH)” value in data set [13] is “Not Active”. Further, the “Ratio IC50” value with Leishmania donovani [14] is 1.4.

In general, EC50 refers to the concentration at which the effect is half-maximal. The low end stands for higher potency in that assay, the high end for lower potency in that assay. With `O=[N+]([O-])c1cn2c(n1)O[C@@H](COc1ccc(-c3ccc(F)cc3)nc1)CC2` [DNDI-0690], in the data set on Leishmania donovani [15], a half-maximal response (EC50) required 0.06 µM.
